The campaign covered roughly 45,000 compounds. About 65 (0.1%) were called active. The call rests on the fitted dose curve; in most records, active means well fitted activation curve with a large enough effect; inconclusive means small, poorly fitted or top-dose-only effect; inactive means no such curve, though single readings can be large or run the other way. The list shows a part of the results.

The text below walks through data of PubChem BioAssay AID1159614 (National Center for Advancing Translational Sciences (NCATS), 2016).

The target of the test is Galactocerebrosidase (Homo sapiens) (UniProt P54803). Description: A Novel Cell-Based Assay to Identify Small Molecules for B -Galactocerebrosidase. Further: 0% is about no effect; nearly all actives have a fitted effect of over 65% in size. As to conditions: 145M-Twi-hGALC-G270D cells (Twitcher mouse brain line with human GALC G270D), HMU-beta-Gal fluorescence, 48 h; series mostly up to 57.5 µM; activation: at the top concentration. In a few lines: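 Mutant human GALC (G270D), stably expressed in a Twitcher mouse brain cell line lacking endogenous GALC, is measured in live-treated cells via 6-hexadecanoylamino-4-methylumbelliferyl-β-galactoside hydrolysis (0.1 mM final, pH 5.2) with fluorescent detection.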
Chain of UniProt P54803 (P54803 whole entry, looked up): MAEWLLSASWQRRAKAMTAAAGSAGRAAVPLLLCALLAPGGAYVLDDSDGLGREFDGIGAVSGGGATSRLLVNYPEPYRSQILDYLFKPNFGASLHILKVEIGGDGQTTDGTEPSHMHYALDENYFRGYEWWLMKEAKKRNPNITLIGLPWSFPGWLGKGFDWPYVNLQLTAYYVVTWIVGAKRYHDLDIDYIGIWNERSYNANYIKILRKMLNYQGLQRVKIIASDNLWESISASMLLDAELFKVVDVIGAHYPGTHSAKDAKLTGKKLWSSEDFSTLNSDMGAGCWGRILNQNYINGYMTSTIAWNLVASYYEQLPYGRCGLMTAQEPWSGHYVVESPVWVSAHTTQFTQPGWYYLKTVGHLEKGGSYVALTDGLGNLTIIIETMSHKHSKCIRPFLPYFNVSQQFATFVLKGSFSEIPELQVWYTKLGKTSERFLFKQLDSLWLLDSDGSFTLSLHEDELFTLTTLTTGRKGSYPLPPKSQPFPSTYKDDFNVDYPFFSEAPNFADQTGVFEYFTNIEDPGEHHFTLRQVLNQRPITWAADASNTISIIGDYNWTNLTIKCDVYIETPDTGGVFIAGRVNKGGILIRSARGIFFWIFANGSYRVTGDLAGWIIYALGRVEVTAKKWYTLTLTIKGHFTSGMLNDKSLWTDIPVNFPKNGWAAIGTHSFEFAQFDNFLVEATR
Regarding `COc1cccc(CNC(=O)CCC(=O)N2CC(C)Sc3ccccc32)c1` (stereo unspecified), the “activation” value was inactive: -17.9%.
As to `Cc1ccccc1CN1C(=O)c2ccccc2S(=O)c2ccc(C(=O)NCc3ccc4c(c3)OCO4)cc21` (stereo unspecified), the “activation” value is inactive: -10.8%.
The result for `CC(=O)Nc1cc(C(=O)Nc2ccc3c(c2)N(C)C(=O)c2ccccc2S3)ccc1C` reads inactive: -10.3%.
Turning to `COc1ccc(N2CCN(S(=O)(=O)CCNC(=O)c3c(F)cccc3Cl)CC2)cc1`, the “activation” value was inactive: -14.6%.
The result for `CCCN(CCC)C(=O)C1CCCN(c2ncnc3c2nc2n3CCCCC2)C1` (stereo unspecified) reads inactive: -12.3%; that for `Cc1ccccc1CNC(=O)c1ccc(CN2CC(=O)N3CCCCC3C2=O)cc1` (stereo unspecified), inactive: -3.24%; that for `CCc1nnc2c3ccccc3nc(N3CCN(c4cc(C)ccc4C)CC3)n12`, inactive: -35.5%.
`CNCC[C@H](Oc1cccc2ccccc12)c1cccs1`: the “activation” value is inactive: -17.8%.
For `Cc1nc2c(c(C)nn2C(C)(C)C)c(C)c1CCC(=O)Nc1ccc(Br)cc1Br` the value was inactive: -11.6%.
In the case of `Cc1ccc(NS(=O)(=O)c2c(C)nc3sc(C)cn3c2=O)c(C)c1`, the “activation” value is inactive: -9.55%.
The result for `Cc1ccc(S(=O)(=O)c2nnn3c2nc(N2CCC(C(N)=O)CC2)c2cc(Cl)ccc23)cc1C` reads inactive: -5.42%; that for `CCC(=O)Nc1cc2nn(-c3ccc(C)cc3)nc2cc1C`, inactive: -16%.
Turning to `Cc1ccc(NC(=O)[C@@H](c2ccccc2)N2Cc3ccccc3C2=O)cc1F`, the “activation” value is inactive: 1.26%.
The result for `O=C(CCCN1CCC(O)(c2ccc(Br)cc2)CC1)c1ccc(F)cc1` reads inactive: -4.63%.
For `Cc1c(C(=O)NCc2ccc(F)cc2)sc2nc(-c3ccc(F)cc3)cn12` the value was inactive: -5.63%.
For `CCOC(=O)Cn1c(=O)n(CC2CCCO2)c2nc(-c3ccc(CC)cc3)nc(C(N)=O)c21` (stereo unspecified), the “activation” value is inactive: -5.97%.
In the case of `O=C(CSc1ncc2c(n1)-c1ccc(Cl)cc1N(Cc1ccccc1)S2(=O)=O)Nc1ccccc1C(F)(F)F`, the “activation” value is inactive: -16.3%.
The result for `CCCCOc1ccccc1C1CC(=O)Nc2cc(OC)c(OC)cc21` (stereo unspecified) reads inactive: -31.1%; that for `CC(=O)Nc1c(C)nn(-c2ccccc2)c1N1CCC(C(=O)Nc2cccc(C(F)(F)F)c2)CC1`, inactive: -9.72%; that for `CCCc1nn2c(=O)cc(COC(=O)c3ccco3)nc2s1`, inactive: -12%.
As for `COc1ccc(CCNC(=O)Cn2c(=O)c3cccn3c3ccccc32)cc1OC`, the “activation” value is inactive: -14.6%.
The result for `Cc1noc(Cn2c(=O)c3ccccc3n(CC(=O)Nc3ccc(C(C)C)cc3)c2=O)n1` reads inactive: -12.1%; that for `Cc1cc(C)cc(N(CC(=O)NCc2ccccc2Cl)S(=O)(=O)c2c(C)[nH]c(=O)[nH]c2=O)c1`, inactive: -18.6%.
For `CCN(CC)c1cc2c(cc1F)c(=O)c(S(=O)(=O)c1ccccc1)cn2C` the value was inactive: 15.7%; for `COC(=O)c1c(NC(=O)/C=C/c2ccc(OC)c(OC)c2)sc2c1CCC2`, inactive: -4.79%; for `CCOc1ccc(NC(=O)CN2CCSc3ccc(S(=O)(=O)N4CCCC4)cc32)cc1`, inactive: -42.7%.
